Consider 167 variants from the RNAGym collection of RNA variant scans (doi:10.7554/elife.90254).

The labels stand for the following.
B1: OR4K15 (parent)
chain: GUUAACGGUCAUAGGCCAUGGAAACUAGGAGCACCAUUUCGCUGCCAGUGAAGAAAUGAACAAAGAAAAUCUGGGCCAGGCAGGCAUCAAAAGAAAUAGUCUUGCGCUCAACCAGAAAGUCUGUAAUCAUUUUAAGGGUA

The source gives no read counts; variants with many changes may rest on few reads.

The data set covers variants of B1. Nature of the data set: self-cleavage, relative activity (ratio to wild type); higher = more cleavage; in vitro, sequencing; the parent is a self-cleaving ribozyme.
On to A63G A94G U124G, for which the self-cleavage is 0.36.
Turning to A64G A78U U103C, the self-cleavage is 0.13.
A64G U102C C109U U120A: the self-cleavage is 0.68.
In the case of A62U U100C A116U C128A it was 0.49; in that of A66G A89G U130C, 0.9.
As for A62U U70C A111G A118U U130C, the self-cleavage was 0.
Consider A63G A67G A92G U122A, for which the self-cleavage turned out to be 0.47.
In the case of A63U A86G U108C U120C it was 0; in that of A63G C105U U122C, 0.02.
In the case of A63U U100C A126G, the self-cleavage is 1.97.
For A62G A91U A125G, the self-cleavage was found to be 0.4.
Turning to A64G A78G A91G A98G A110G, the self-cleavage was 0.04.
For the variant A64G G65A A117G A140G, the self-cleavage came out at 2.87.
In the case of A62U A78G A92G U97C A117G it was 0.13.
Turning to A63G A78C U103C, the self-cleavage is 0.12.
In the case of A66G A92G U108C it was 0.02; in that of A63U A69G A129C, 0.4.
Turning to A66G A67G A95G, the self-cleavage turned out to be 1.75.
A63G A82U A96G U108C: the self-cleavage was 0.05.
Consider A63G A114G U131C, for which the self-cleavage was 0.03.
For A62G U103C A116G, the self-cleavage is 0.71.
In the case of G65U U70C A89G A111G A126G it was 0.05; in that of A64G A86U A114G C121A U130A U131C, 0.82.
Turning to A62G U103A A111G A118G, the self-cleavage is 0.
As to A62G U87C A90G, the self-cleavage amounted to 0.4.
Take A64U A94G U102C: the self-cleavage was found to be 1.86.
Turning to A63G A66U A117G, the self-cleavage worked out at 1.78.
As to A66G A111G A114C A117G, the self-cleavage was 0.
In the case of A64G A66G A67G C107G it was 0.09; in that of A62G A95G U120A, 1.96.
Turning to A63G U127A U131C, the self-cleavage amounted to 1.68.
For the variant A63G C88U A117G, the self-cleavage was 2.41.
Turning to A62U A91U U100C, the self-cleavage worked out at 2.48.
On to A64G U87A A116G U127C, for which the self-cleavage was 0.63.
A64G A66G A69G A92G: the self-cleavage stood at 0.72.
In the case of A63G U87C A111U G136U it was 0.04.
Consider A62U U100C A117G, for which the self-cleavage is 2.97.
For A64G A78G A126C, the self-cleavage came out at 0.06.
As to A64G U72C C113U A129G, the self-cleavage came to 0.02.
Regarding A62G U108C A126G, the self-cleavage turned out to be 0.01.
With A64G A111U A126G, the self-cleavage worked out at 0.09.
Consider A64G A89U A91G, for which the self-cleavage was 1.51.
As to A62U U70C C105A U130C, the self-cleavage was 0.01.
As to A64G A78U G80U A82U A90G A96G U103C, the self-cleavage amounted to 0.03.
In the case of A64G A82U U87C it was 0.16; in that of A63G A82G A92G A117U U130C, 0.29.
As to A62G U108C U131C, the self-cleavage turned out to be 0.02.
Regarding A66C A89G U103C U132C, the self-cleavage was 0.93.
A62G G73A A82G: the self-cleavage turned out to be 0.29.
As to A63G C81U A86G, the self-cleavage was found to be 0.16.
As for A62U A91G A110G, the self-cleavage was found to be 0.13.
With A66G C81U U102C the figure was 0.91; with A62G A94G A126C, 0.74; with A64U U72C A91G A129G U130C U132A, 0.04.
A64U U127C U133C: the self-cleavage was 1.45.
Regarding A66G A78U G138A, the self-cleavage was determined as 0.18.
With A62G A94G U108A the figure was 0.01; with A64G A69G G75A A118G, 0.13.
With A63G A78G A96G the figure was 0.16; with A64G U108C U122C, 0.01.
As to A64U A126G A140U, the self-cleavage came to 0.64.
As to A62U A91U U120C, the self-cleavage was found to be 1.33.
For the variant A64G A91G A135U, the self-cleavage amounted to 1.57.
On to A63G A69U U102C, for which the self-cleavage stood at 1.59.
As for A64G U87C A111G, the self-cleavage came to 0.04.
As to A63G A69G U132G, the self-cleavage was found to be 2.74.
With A63G A78G A91U the figure was 0.45.
With A66G A111G A140G, the self-cleavage turned out to be 0.03.
For the variant A66G A91G U130C G137A, the self-cleavage amounted to 0.8.
For G65A U70C A95G, the self-cleavage came to 0.6.
A62U U102A A116U: the self-cleavage was found to be 0.16.
With A64G A67U A135G the figure was 2.79; with A63G A69G A94G, 1.08; with A66G A82U U108C, 0.02.
In the case of A63G A82U A98U U100C A118G it was 0.73; in that of A63G A125G U127C, 0.31.
In the case of A62U A86G A94G A129G it was 1.26; in that of A66C U87C A114U U131C, 0.01; in that of A64G A92G U130C, 0.34.
Consider A64G A69G A126G, for which the self-cleavage is 0.64.
In the case of A62U A64G A69U U87C U102C it was 2.61; in that of A66G A78U A94G A129G, 0.24; in that of A64U U108A U133C, 0.01.
As to A64U A92G A116G, the self-cleavage was found to be 1.31.
Regarding A62U C101A U102C A110G U120C, the self-cleavage worked out at 0.09.
Consider A62G U70C A116U A118G, for which the self-cleavage is 0.03.
Take A63G A90G U127C: the self-cleavage stood at 0.71.
As for A63C U131C U132C, the self-cleavage worked out at 1.24.
With A62G U72A A91G G104A U130C the figure was 0; with A66G A86G U102C, 1.73.
With A64G A110C U120C, the self-cleavage worked out at 0.28.
In the case of A62G U72A U87C A111G A140G it was 0.01; in that of A63G U131C G137A, 2.16; in that of A64G A92G A114G, 0.54.
Take A64G A66G A68G C109U: the self-cleavage turned out to be 0.29.
With A63G U70C A116G the figure was 0.7; with A62U C112A U132G, 0.01.
With A64G A114U A118G the figure was 0; with G65U A96G C105U, 0.12; with A63G A86G A116G, 1.26.
Regarding A62G A92G U132C, the self-cleavage worked out at 1.
For A62U A116C U130C, the self-cleavage stood at 0.08.
For A66G A92G U127A G137A, the self-cleavage worked out at 1.9.
Regarding A63G A91G G137U, the self-cleavage came out at 1.41.
Turning to A64G U72C C81A A86G U87C, the self-cleavage was 0.09.
As to A66G A92G A96G A116C, the self-cleavage was found to be 0.09.
For A63G A110G U120A, the self-cleavage was 0.13.
For A63U A86U U108C, the self-cleavage was 0.01.
Consider A64G A98U A117G, for which the self-cleavage is 2.99.
As to G65U A125G U130A U131C, the self-cleavage came out at 0.37.
On to A62U A114U A118G, for which the self-cleavage is 0.01.
Turning to A62G A95G C105U U120C, the self-cleavage came out at 0.02.
With A63U U103C U131C the figure was 0.63; with A63G U72C U87A U103C, 0.21; with A63U G104A A114G, 0.06.
As for A63G A96G A118G A125G, the self-cleavage stood at 0.14.
Turning to A64U U100A U102C U108C U122C, the self-cleavage is 0.
With A66G A91G A114G A118G U132C, the self-cleavage was 0.31.
With A64G U70C A95G C109A U120A U127A U139C the figure was 0.51.
Consider A63G A67G U133C, for which the self-cleavage is 0.98.
In the case of A62G A95G A114G U131C it was 0.25; in that of A66G A86U U131C, 0.75; in that of A66G A89G U122G, 2.37.
As to A64G U70A A135C, the self-cleavage came out at 1.61.
On to A66G A68G U122C, for which the self-cleavage is 1.08.
G65A A116G U120C: the self-cleavage was determined as 0.45.
Turning to A62U U72A A78G, the self-cleavage was 0.15.
As to A64G G79A A86U A111G, the self-cleavage came out at 0.01.
As to A62U U70C C88A A91G A94U, the self-cleavage worked out at 0.36.
As to A62U A67G A78U A134U, the self-cleavage amounted to 0.41.
Take A66C G75A A91G U108C A118G U127C: the self-cleavage was found to be 0.
For the variant A66G A67U A68G U72C, the self-cleavage amounted to 0.26.
A62G A95G U131C: the self-cleavage was 2.98.
With A63G A89U U120A, the self-cleavage was determined as 2.44.
As to A63G A78G A89U A129G, the self-cleavage is 0.13.
In the case of A64U A69G A89U it was 0.75; in that of G65U A68G A118G, 1.58; in that of A64G A67G C128A, 0.77.
In the case of A63U A64C A98G it was 0.18; in that of A64G A90G U108C U122C, 0.03.
As to A64U U87C A90G, the self-cleavage is 0.43.
In the case of A64G A89G U120C it was 0.6; in that of A63G A89U U127A, 2.58.
In the case of A62G U108G A114C A116G it was 0.
Take A66G A111G A117G: the self-cleavage was found to be 0.
In the case of A63G A64G G73A A117G it was 0.22; in that of A63G G73U A110G, 0.06.
In the case of A64G A68G G106A it was 0.02; in that of A64G A78G A91G A111U, 0.05; in that of A63G G84A U102A A117U, 0.93.
Take A63G A66G A117G: the self-cleavage turned out to be 1.6.
Consider A63G U102C G123A, for which the self-cleavage stood at 1.39.
With A64G A78G U100C A135G the figure was 0.18; with A66C U122C A134G, 1.43.
In the case of A63U A82G U87G it was 0.2.
Take A63G A91G A92G A94G: the self-cleavage is 0.75.
In the case of A63C A91G U131C it was 1.52; in that of A64G C112A A114U, 0.01.
Consider A62G U100C U124C U132C, for which the self-cleavage is 1.95.
A66G A98U A135G: the self-cleavage is 0.41.
As for A63G A78U U122C, the self-cleavage was determined as 0.17.
With A66C A95G U122C, the self-cleavage came to 2.61.
Take A63G A69G A95G A96G: the self-cleavage was found to be 1.18.
In the case of A64G A68G A118G it was 1.06; in that of A62U A82G A94U A125G, 0.24.
With A63G U70C A117G, the self-cleavage is 0.5.
With A62U U70C A116C, the self-cleavage is 0.03.
